Among all 3,200 compounds or so, about 110 (3.4%) showed an effect of 50% or more. The list shows a part of the results.
The compounds below were run on T1, V. cholerae SAD30. Conditions: relative growth, OD600, LB; 25 µM; inhibitor.
T1 construct: SAD30
Set-up: species or system S. aureus MSSA476 (TSB) or V. cholerae SAD30 (LB); 384-well bacterial growth screen at 25 uM, OD600 relative to DMSO control

| Compound | % of control remaining [%] |
| --- | --- |
| CC(Cl)C(=O)N1CCC(Cc2ccncc2)C1 (stereo not drawn) [6-N11, 2-chloro-1-{3-[(pyridin-4-yl)methyl]pyrrolidin-1-yl}propan-1-one] | 92.3689 |
| CCCCNC(=O)C(C#N)=Cc1ccc2c(c1)OCCO2 [9-G11, N-butyl-2-cyano-3-(2,3-dihydro-1,4-benzodioxin-6-yl)prop-2-enamide] | 85.724 |
| COc1c(Cl)cc(Cl)cc1C=C(C#N)C(N)=O [9-M13, 2-cyano-3-(3,5-dichloro-2-methoxyphenyl)prop-2-enamide] | 87.8994 |
| C=CC(=O)N1CCC(OC2CCCC2)CC1 [1-L07, 1-[4-(cyclopentyloxy)piperidin-1-yl]prop-2-en-1-one] | 87.2945 |
| O=C(CCl)NCCCN1CCCCCC1=O [5-J10, 2-chloro-N-[3-(2-oxoazepan-1-yl)propyl]acetamide] | 114.49 |
| CC(C)NC(=O)C(C#N)=Cc1ccccc1Cl [9-A09, 3-(2-chlorophenyl)-2-cyano-N-(propan-2-yl)prop-2-enamide] | 89.259 |
| CC(Cl)C(=O)NC1CCc2cc(C#N)ccc21 (stereo not drawn) [5-N17, 2-chloro-N-(5-cyano-2,3-dihydro-1H-inden-1-yl)propanamide] | 96.6691 |
| COC1(CNC(=O)CCl)CCC(C(F)F)CC1 (stereo not drawn) [6-D21, 2-chloro-N-{[4-(difluoromethyl)-1-methoxycyclohexyl]methyl}acetamide] | 97.2225 |
| CC(=O)Nc1ccc(C=C(C#N)C(=O)NCc2ccccc2)cc1 [8-D12, N-benzyl-2-cyano-3-(4-acetamidophenyl)prop-2-enamide] | 70.7682 |
| O=C(CCl)c1ccc(O)cc1O [10-C14, 2-chloro-1-(2,4-dihydroxyphenyl)ethan-1-one] | 100.682 |
| Cc1cc(Cl)ccc1OC(C)C(=O)N1CCSSCC1 (stereo not drawn) [10-J21, 2-(4-chloro-2-methylphenoxy)-1-(1,2,5-dithiazepan-5-yl)propan-1-one] | 84.1613 |
| CC(Cl)C(=O)Nc1cccc(C(F)(F)F)c1 (stereo not drawn) [5-P14, 2-chloro-N-[3-(trifluoromethyl)phenyl]propanamide] | 101.881 |
| C=CC(=O)NC1CC(CC(F)(F)F)C1 (stereo not drawn) [2-F09, N-[3-(2,2,2-trifluoroethyl)cyclobutyl]prop-2-enamide] | 90.3503 |
| Cc1cc(C2(NC(=O)C(C)Cl)CCOCC2)on1 (stereo not drawn) [7-O13, 2-chloro-N-[4-(3-methyl-1,2-oxazol-5-yl)oxan-4-yl]propanamide] | 80.0925 |
| CC(Cl)C(=O)NCc1cc(-c2ccccc2)on1 (stereo not drawn) [7-A13, 2-chloro-N-[(5-phenyl-1,2-oxazol-3-yl)methyl]propanamide] | 82.868 |
| O=C(CCl)N(Cc1ccc(F)cc1)C12CC3CC(CC(C3)C1)C2 [4-B11, N-(adamantan-1-yl)-2-chloro-N-[(4-fluorophenyl)methyl]acetamide] | 70.0453 |
| CC(Cl)C(=O)Nc1sc2c(c1C(N)=O)CCC2 (stereo not drawn) [6-A21, 2-(2-chloropropanamido)-4H,5H,6H-cyclopenta[b]thiophene-3-carboxamide] | 96.6158 |
| COc1cc(C=C(C#N)C(N)=O)ccc1OC(F)F [8-P08, 2-cyano-3-[4-(difluoromethoxy)-3-methoxyphenyl]prop-2-enamide] | 77.4303 |
| CC(Cl)C(=O)NCc1ccc(C(=O)Nc2ccc(F)cc2)cc1 (stereo not drawn) [7-G19, 4-[(2-chloropropanamido)methyl]-N-(4-fluorophenyl)benzamide] | 73.6164 |
| Cn1nnc(CN(C(=O)CCl)C2CCCCCCC2)n1 [5-A16, 2-chloro-N-cyclooctyl-N-[(2-methyl-2H-1,2,3,4-tetrazol-5-yl)methyl]acetamide] | 107.261 |
| C=CC(=O)N(Cc1cccc(F)c1F)C1CCCC(F)(F)C1 (stereo not drawn) [1-N13, N-(3,3-difluorocyclohexyl)-N-[(2,3-difluorophenyl)methyl]prop-2-enamide] | 77.2795 |
| COc1ccc(NC(=O)C(C#N)=Cc2cccs2)cc1 [8-O14, 2-cyano-N-(4-methoxyphenyl)-3-(thiophen-2-yl)prop-2-enamide] | 72.5357 |
| CC(Cl)C(=O)NC(C)(C)c1ccc(F)cc1F (stereo not drawn) [6-E21, 2-chloro-N-[2-(2,4-difluorophenyl)propan-2-yl]propanamide] | 92.9756 |

| Compound | % of control remaining [%] |
| --- | --- |
| N#CC(=Cc1ccc([N+](=O)[O-])c(Cl)c1)C(=O)NCc1ccccc1 [8-D08, N-benzyl-3-(3-chloro-4-nitrophenyl)-2-cyanoprop-2-enamide] | 80.5574 |
| Cl.O=C(CCl)NC(c1ccccc1)C1CC1c1ccncc1 (stereo not drawn) [7-F03, 2-chloro-N-{phenyl[2-(pyridin-4-yl)cyclopropyl]methyl}acetamide hydrochloride] | 94.3664 |
| CC(Cl)C(=O)N(Cc1nc(C2CCCCCC2)no1)C1CC1 (stereo not drawn) [7-E05, 2-chloro-N-[(3-cycloheptyl-1,2,4-oxadiazol-5-yl)methyl]-N-cyclopropylpropanamide] | 62.6466 |
| COc1cccc(NC(=O)C(C)Cl)c1 (stereo not drawn) [6-I03, 2-chloro-N-(3-methoxyphenyl)propanamide] | 100.863 |
| C=CC(=O)N(CC)Cc1cccc2c1OCO2 [3-I05, N-[(1,3-dioxaindan-4-yl)methyl]-N-ethylprop-2-enamide] | 96.3242 |
| COc1ccccc1N1C(=O)C=CC1=O [10-O10, 1-(2-methoxyphenyl)-2,5-dihydro-1H-pyrrole-2,5-dione] | 26.0277 |
| C=CC(=O)N(Cc1c(C)cccc1C)C1CCc2nc(C)nn2C1 (stereo not drawn) [1-B11, N-[(2,6-dimethylphenyl)methyl]-N-{2-methyl-5H,6H,7H,8H-[1,2,4]triazolo[1,5-a]pyridin-6-yl}prop-2-enamide] | 89.0882 |
| CC(C)n1cc(C2=CCCN(C(=O)CCl)CC2)nn1 [5-F05, 2-chloro-1-{4-[1-(propan-2-yl)-1H-1,2,3-triazol-4-yl]-2,3,6,7-tetrahydro-1H-azepin-1-yl}ethan-1-one] | 101.208 |
| CCOc1ccccc1NC(=O)C(C)Cl (stereo not drawn) [6-M10, 2-chloro-N-(2-ethoxyphenyl)propanamide] | 86.1503 |
| O=C(CCl)Nc1c(Cl)c(Cl)cc(Cl)c1Cl [4-O16, 2-chloro-N-(2,3,5,6-tetrachlorophenyl)acetamide] | 98.512 |
| C=CC(=O)N(Cc1ccccc1)C1CCOc2ccc(OC)cc21 (stereo not drawn) [1-O17, N-benzyl-N-(6-methoxy-3,4-dihydro-2H-1-benzopyran-4-yl)prop-2-enamide] | 82.9596 |
| O=C(CCl)NCCc1c(F)cccc1F [5-F20, 2-chloro-N-[2-(2,6-difluorophenyl)ethyl]acetamide] | 99.5272 |
| C=CC(=O)N1CCC(C(=O)N2Cc3ccc([N+](=O)[O-])cc3C2)CC1 [2-F04, 1-[4-(5-nitro-2,3-dihydro-1H-isoindole-2-carbonyl)piperidin-1-yl]prop-2-en-1-one] | 98.2245 |
| Cc1ccc(C=C(C#N)C(=O)Nc2ccccc2C)cc1 [8-G16, 2-cyano-N-(2-methylphenyl)-3-(4-methylphenyl)prop-2-enamide] | 72.8076 |
| Cc1ccc(C2=NN(C(=O)CCl)C(c3cccs3)C2)cc1 (stereo not drawn) [4-O22, 2-chloro-1-[3-(4-methylphenyl)-5-(thiophen-2-yl)-4,5-dihydro-1H-pyrazol-1-yl]ethan-1-one] | 109.036 |
| C=CC(=O)NCc1ccc(C(=O)N2CCC(c3nnc(C)o3)CC2)cc1 [2-M18, N-({4-[4-(5-methyl-1,3,4-oxadiazol-2-yl)piperidine-1-carbonyl]phenyl}methyl)prop-2-enamide] | 91.5854 |
| CC(Cl)C(=O)N1CC(Oc2ccc(C#N)cc2)C1 (stereo not drawn) [6-J15, 4-{[1-(2-chloropropanoyl)azetidin-3-yl]oxy}benzonitrile] | 92.0656 |
| COC(=O)[C@H]1[C@@H](C(=O)CCl)C1(C)C (racemic) [10-A11, rac-methyl (1R,3S)-3-(2-chloroacetyl)-2,2-dimethylcyclopropane-1-carboxylate] | 103.955 |
| Cc1cccc(C)c1NC(=O)CN(C)C(=O)CCl [5-A13, 2-chloro-N-{[(2,6-dimethylphenyl)carbamoyl]methyl}-N-methylacetamide] | 104.907 |
| Cc1ccc(C)c(CN(CCO)C(=O)CCl)c1 [5-K20, 2-chloro-N-[(2,5-dimethylphenyl)methyl]-N-(2-hydroxyethyl)acetamide] | 98.1822 |
| N#CC(=Cc1ccsc1)C(=O)NCc1ccc(Cl)cc1 [8-I15, N-[(4-chlorophenyl)methyl]-2-cyano-3-(thiophen-3-yl)prop-2-enamide] | 64.5139 |
| C=CC(=O)NCCC(=O)N1CCN(c2nc(C)cs2)C(C)C1 (stereo not drawn) [2-F06, N-{3-[3-methyl-4-(4-methyl-1,3-thiazol-2-yl)piperazin-1-yl]-3-oxopropyl}prop-2-enamide] | 90.3503 |

Reference: PMC11995724, “Antibiotic target discovery by integrated phenotypic and activity-based profiling of electrophilic fragments” (Cell chemical biology, 2025)
